Over roughly 33,000 sequences, “E-score (-0.5 to 0.5)” has its median near -0.035; the highest 2% begin near 0.34. This is one part of the list.
Target: T1, Mot3 (UniProt P54785)
T1 sequence: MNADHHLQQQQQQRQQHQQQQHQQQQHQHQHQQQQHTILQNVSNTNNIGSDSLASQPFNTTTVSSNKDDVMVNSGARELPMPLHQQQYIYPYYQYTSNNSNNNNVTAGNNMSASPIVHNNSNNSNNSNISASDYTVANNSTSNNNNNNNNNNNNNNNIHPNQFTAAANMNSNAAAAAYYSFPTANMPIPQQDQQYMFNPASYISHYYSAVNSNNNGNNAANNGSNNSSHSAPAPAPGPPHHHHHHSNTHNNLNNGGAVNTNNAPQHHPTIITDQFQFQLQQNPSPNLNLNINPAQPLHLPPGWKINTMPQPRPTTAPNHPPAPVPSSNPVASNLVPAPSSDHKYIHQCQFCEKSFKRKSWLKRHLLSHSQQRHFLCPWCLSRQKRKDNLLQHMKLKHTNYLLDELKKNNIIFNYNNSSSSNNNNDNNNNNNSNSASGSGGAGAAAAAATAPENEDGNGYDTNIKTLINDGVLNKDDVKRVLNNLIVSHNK
Experiment: PBM E-score (8-mer binding enrichment) (E-score (-0.5 to 0.5)); higher = stronger / more preferred TF binding; most listed sequences are background and not binding sites
Conditions: protein concentration: 200 nM; construct: GST-full length
Procedure, shortened: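 Universal all-10-mer Agilent arrays, fresh or stripped once, were converted to double-stranded form by primer extension. GST-tagged yeast transcription factors from PURExpress in vitro transcription/translation, full-length or DNA-binding domain only, were applied at about 100-200 nM and detected with fluorescent anti-GST. After masliner normalisation, the Universal PBM Analysis Suite scored each ungapped eight-base word together with its reverse complement by E-score.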

Row | Sequence | PBM E-score
1 | CTGTCCGA | 0.0291
2 | CAAATCCC | -0.263
3 | CCTGTGGC | -0.0178
4 | AAGCCTGG | -0.078
5 | ATGGATCA | -0.178
6 | TCGCTAGA | -0.251
7 | TGGCTTAA | -0.0163
8 | AAGGTTCA | 0.0949
9 | CAGAACAC | 0.0888
10 | TAACTCTA | -0.185
11 | GCGCTAGA | 0.0173
12 | TTGGCCAA | -0.323
13 | AGGCCGAC | -0.381
14 | AGCACAGC | -0.0987
15 | AAGAGTAT | -0.0506
16 | AGCTGTGG | -0.23
17 | CCCTAGAC | -0.243
18 | AGTCCCTG | -0.261
19 | AATGTAGG | 0.191
20 | CTGTTTGA | 0.0397
21 | CGCTGTTC | 0.067
22 | GACTTCGC | -0.117
23 | AGGCTACG | 0.198
24 | AGTTTTAA | 0.109
25 | GCTCCCTA | -0.148

Row | Sequence | PBM E-score
26 | CCTAAACG | 0.197
27 | GCTCGGAA | -0.076
28 | GTAAAAAC | 0.295
29 | GCGCGAAA | 0.097
30 | ACCGAACG | -0.104
31 | GGAATGCA | -0.0874
32 | ACCGAGCA | -0.193
33 | ACTCGCCA | 0.0197
34 | ATCACCGC | -0.045
35 | AGAGACTG | -0.328
36 | AGTTAGAT | 0.0673
37 | GTTTATCA | 0.0384
38 | ACGAGTTG | 0.0334
39 | ACGCGTTA | 0.322
40 | TAGCAGGA | 0.0679
41 | AAGTTCTG | -0.0632
42 | CAGAGACC | -0.247
43 | AATAGAAG | 0.0367
44 | ATTCTGCC | -0.235
45 | GGGCGAAA | -0.09
46 | GGTTAGAC | -0.0901
47 | AACCTCGG | -0.252
48 | CTCGCCTC | -0.175
49 | CGCGCGGA | -0.156
50 | CTGCTCGC | -0.159

Row | Sequence | PBM E-score
51 | CTGGATAC | -0.0992
52 | CTTAGAAA | 0.11
53 | ACAAAAGG | 0.142
54 | CTGAAGCA | -0.102
55 | CTACCCAG | -0.0987
56 | TAGCCTGA | 0.229
57 | CCGCATCC | -0.179
58 | GCAACTCA | 0.0787
59 | AGGGTTCC | 0.0511
60 | CCGGCGAC | -0.266
61 | ACAATAAC | 0.113
62 | CTCTTCGC | -0.098
63 | CAGGGGAG | -0.203
64 | CGGTTACG | -0.0122
65 | CACTTAGG | 0.184
66 | ATTATAGA | -0.0674
67 | GGCCCTTA | -0.0858
68 | ACGTAATA | 0.35
69 | GATCGATA | -0.131
70 | GGTACATA | 0.238
71 | ATTTATTC | 0.0806
72 | AATCGCAC | -0.0611
73 | AACACGAT | 0.349
74 | ATTGGGTA | -0.155
75 | GAAAACGC | 0.0746

Row | Sequence | PBM E-score
76 | CCACAGAA | 0.00876
77 | ATGTGAGG | 0.0562
78 | AGGGGGAT | -0.218
79 | GAATTTTA | 0.0878
80 | ACTTGCCA | -0.1
81 | CTCATAGC | -0.157
82 | ACTAGAAC | -0.0138
83 | CATCCCAA | -0.0379
84 | CAGACAGA | 0.0746
85 | GGTACGAC | -0.0554
86 | ACGATCAT | 0.0802
87 | CATATCTC | -0.0966
88 | CACTCCGC | -0.196
89 | GCACTCCA | 0.0334
90 | ACTTTCAG | -0.0383
91 | GCCGAGAC | -0.15
92 | CTCGATGC | -0.0372
93 | GGCTACTA | -0.0622
94 | CACGTGAA | 0.183
95 | AGCACACG | 0.0884
96 | AAAATAAC | 0.122
97 | CAGGGTAA | 0.0319
98 | CAGGATCA | 0.147
99 | CCTACTAG | 0.121
100 | CGCGGACC | -0.147

Row | Sequence | PBM E-score
101 | ATATGGCG | -0.183
102 | AGTGGATC | -0.0313
103 | GGTCAAGA | -0.0528
104 | CGGACATC | -0.247
105 | CGCCGAAA | -0.111
106 | TATGGAAA | -0.133
107 | ATCGCTTG | -0.0296
108 | AAGTACGT | 0.0949
109 | CGGGATCA | -0.168
110 | GTCGGCAC | -0.129
111 | ACGAATGC | 0.0202
112 | AGGCAATC | 0.481
113 | CCTTTGTA | 0.289
114 | CCACTGGG | -0.18
115 | ACTTTTCA | 0.0743
116 | AGCCCAAT | 0.0566
117 | TGGTACCA | -0.0506
118 | ACGACATG | 0.327
119 | CAGCAATC | -0.262
120 | CATCAACG | 0.00915
121 | ACATCACT | 0.178
122 | GATAGGAC | -0.294
123 | GGGTTAGA | -0.237
124 | CAAGAAGA | 0.0974
125 | AAGAGTGT | -0.0357

Row | Sequence | PBM E-score
126 | AAAACCCG | 0.155
127 | CTATTCAC | 0.116
128 | AAACACAC | 0.287
129 | AAGCGATC | -0.0933
130 | TAATCCTA | 0.0867
131 | AACATGAT | 0.349
132 | CACGAACC | 0.0932
133 | CGCAAGAG | -0.0975
134 | GGGGCTAC | -0.269
135 | GGATAGAC | -0.151
136 | ACGGTACT | -0.207
137 | ACCTACAT | 0.289
138 | CGTTTTGC | 0.144
139 | ATGTGTCC | -0.0237
140 | GGCTGGAA | -0.236
141 | CCAAAGTC | -0.189
142 | GGCCAAGA | -0.37
143 | CGTGAGAG | -0.159
144 | CCCTGCAG | -0.0541
145 | CCTTCACG | 0.0566
146 | AACTAAGT | 0.0135
147 | GCATTACA | 0.35
148 | CAAAAACC | 0.0383
149 | CTGACAGC | -0.17
150 | GCTGGGGA | -0.157

Row | Sequence | PBM E-score
151 | CTCGCACA | -0.03
152 | AACATGTC | 0.296
153 | GACAGACA | -0.00417
154 | ATTCGGGA | -0.217
155 | CCATCGTA | 0.105
156 | CCCGGGAA | -0.203
157 | AATTCTTA | 0.0262
158 | ACCGCAAA | -0.0982
159 | ATTATCTG | -0.0449
160 | CTGGAGGC | -0.114
161 | CTTTGCCA | -0.0932
162 | AGTTTATC | 0.122
163 | ATTGCGGC | -0.165
164 | ATCTTACG | 0.129
165 | AAGTTTGG | -0.102
166 | CCGCCGAG | -0.215
167 | AATAGAGG | -0.219
168 | ATTAACGA | 0.215
169 | AACTGCGG | -0.116
170 | CGACAACG | 0.00035
171 | AGAGTATG | -0.133
172 | CCAATTTC | -0.228
